The values that follow come from patent US20250011397A1 (HOSPITAL FOR SICK CHILDREN, published 2025).

Values joined by “and” are separate entries in the source; they are usually repeats but may differ in a detail not shown here. Identical values can stand only once. Like-named read-outs stand apart in the source and are kept apart here.

Common to all, as to assay: cell-based or functional assay
For assay [1], the target named is T1, SARS-CoV-2 Spike on HIV-based pseudotyped virus (Spike plasmid BEI NR52310) (SARS-CoV-2).
The target of assay [2] is T1, SARS-CoV-2 Spike on HIV-based …. The source holds these as a separate data set.
Assay [3] has the same target. This is another data set of the same source.
Assay [4] deals with Spike of authentic SARS-CoV-2/SB2-P4-PB virus (SARS-CoV-2).

B1: VHH-72-Fc (Fc fusion)
chain: QVQLQESGGGLVQAGGSLRLSCAASGRTFSEYAMGWFRQAPGKEREFVATISWSGGSTYYTDSVKGRFTISRDNAKNTVYLQMNSLKPDDTAVYYCAAAGLGTVVSEWDYDYDYWGQGTQVTVSSGS[human IgG1 Fc not spelt out]
Turning to B1, the “Median IC50 (PsV neutralization)” value in assay [1] is 16 nM.

B2: MB 52 (other)
heavy: QVQLVQSGAEVKKPGSSVKVSCKASGYTFTSYGISWVRQAPGQGLEWMGGIIPMFGTTNYAQKFQGRVTITADKSTSTAYMELSSLRSEDTAVYYCARDRGDTIDYWGQGTLVTVSSASTKGPSVFPLAPSSKSTSGGTAALGCLVKDYFPEPVTVSWNSGALTSGVHTFPAVLQSSGLYSLSSVVTVPSSSLGTQTYICNVNHKPSNTKVDKKVEPKSC
light: DIQMTQSPSSLSASVGDRVTITCRASQGISNNLNWYQQKPGKAPKLLIYAASSLESGVPSRFSGSGSGTDFTLTISSLQPEDFATYYCQQGNGFPLTFGPGTKVDIKRTVAAPSVFIFPPSDEQLKSGTASVVCLLNNFYPREAKVQWKVDNALQSGNSQESVTEQDSKDSTYSLSSTLTLSKADYEKHKVYACEVTHQGLSSPVTKSFNRGEC
In the case of B2, the “Median IC50 (PsV neutralization)” value in assay [2] was 0.0002 µg/mL and 0.087 pM. For the same molecule, in assay [3], the “IC50 SARS-CoV2 PsV (µg/mL), MB” value amounted to 0.0002 µg/mL. For the same molecule, in assay [4], the “IC50 SARS-CoV2/SB2-P4-PB (µg/mL), MB” value stood at 0.27 µg/mL.

B3: 4A8 MB (other)
chain 1: EIVMTQSPLSSPVTLGQPASISCRSSQSLVHSDGNTYLSWLQQRPGQPPRLLIYKISNRFSGVPDRFSGSGAGTDFTLKISRVEAEDVGVYYCTQATQFPYTFGQGTKVDIKRTVAAPSVFIFPPSDEQLKSGTASVVCLLNNFYPREAKVQWKVDNALQSGNSQESVTEQDSKDSTYSLSSTLTLSKADYEKHKVYACEVTHQGLSSPVTKSFNRGECGGGGSGGGGSGGGGSGGGGSGGGGSGGGGSGGGGSGGGGSGGGGSGGGGSGGGGSGGGGSGGGGSGGGGSEVQLVESGAEVKKPGASVKVSCKVSGYTLTELSMHWVRQAPGKGLEWMGGFDPEDGETMYAQKFQGRVTMTEDTSTDTAYMELSSLRSEDTAVYYCATSTAVAGTPDLFDYYYGMDVWGQGTTVTVSSASTKGPSVFPLAPSSKSTSGGTAALGCLVKDYFPEPVTVSWNSGALTSGVHTFPAVLQSSGLYSLSSVVTVPSSSLGTQTYICNVNHKPSNTKVDKKVEPKSCGGGGSGGGGSGGGGSGGGGSGGGGSG[about 200 residues not spelt out]
chain 2: [human IgG1 Fc not spelt out]GGGGSGGGGSGGGGSGGGGSGGGGSGGGGSGGGGSGGGGSGGGGSGGGGSGGGGSGGGGSGGGGSGGGGS[human IgG1 Fc not spelt out]GGGGSGGGGSGGGGSGGGGSGGGGSGGSSQIRQNYSTDVEAAVNSLVNLYLQASYTYLSLGFYFDRDDVALEGVSHFFRELAEEKREGYERLLKMQNQRGGRALFQDIKKPAEDEW
chain 3: EIVMTQSPLSSPVTLGQPASISCRSSQSLVHSDGNTYLSWLQQRPGQPPRLLIYKISNRFSGVPDRFSGSGAGTDFTLKISRVEAEDVGVYYCTQATQFPYTFGQGTKVDIKRTVAAPSVFIFPPSDEQLKSGTASVVCLLNNFYPREAKVQWKVDNALQSGNSQESVTEQDSKDSTYSLSSTLTLSKADYEKHKVYACEVTHQGLSSPVTKSFNRGECGGGGSGGGGSGGGGSGGGGSGGGGSGGGGSGGGGSGGGGSGGGGSGGGGSGGGGSGGGGSGGGGSGGGGSEVQLVESGAEVKKPGASVKVSCKVSGYTLTELSMHWVRQAPGKGLEWMGGFDPEDGETMYAQKFQGRVTMTEDTSTDTAYMELSSLRSEDTAVYYCATSTAVAGTPDLFDYYYGMDVWGQGTTVTVSSASTKGPSVFPLAPSSKSTSGGTAALGCLVKDYFPEPVTVSWNSGALTSGVHTFPAVLQSSGLYSLSSVVTVPSSSLGTQTYICNVNHKPSNTKVDKKVEPKSCGGGGSGGGGSGGGGSGGGGSGGGGSGGGKTPDAMKAAMALEKKLNQALLDLHALGSARTDPHLCDFLETHFLDEEVKLIKKMGDHLTNLHRLGGPEAGLGEYLFERLTLRHD
Take B3: the “Median IC50 (PsV neutralization)” value in assay [1] was 0.052 µg/mL and 23 pM.

B4: MB 64 (other)
heavy: EVQLLESGGGLVQPGGSLRLSCAASGFPFSQHGMHWVRQAPGKGLEWVSAIDRSGSYIYYADSVKGRFTISRDNSKNTLYLQMNSLRAEDTAVYYCARDTYGGKVTYFDYWGQGTLVTVSSASTKGPSVFPLAPSSKSTSGGTAALGCLVKDYFPEPVTVSWNSGALTSGVHTFPAVLQSSGLYSLSSVVTVPSSSLGTQTYICNVNHKPSNTKVDKKVEPKSC
light: DIQMTQSPSSLSASVGDRVTITCRASQGISSHLAWYQQKPGKAPKLLIYDASNLETGVPSRFSGSGSGTDFTLTISSLQPEDFATYYCQQTYSTPWTFGQGTKVEIKRTVAAPSVFIFPPSDEQLKSGTASVVCLLNNFYPREAKVQWKVDNALQSGNSQESVTEQDSKDSTYSLSSTLTLSKADYEKHKVYACEVTHQGLSSPVTKSFNRGEC
On to B4, for which the “Median IC50 (PsV neutralization)” value in assay [2] is 14 µg/mL and 6.1 nM. Moreover, the “IC50 SARS-CoV2 PsV (µg/mL), MB” value in assay [3] turned out to be 14 µg/mL.
